Source: a compilation of properties of binary mixtures (doi:10.1021/acs.iecr.1c02970)
The densities may have been worked out from excess volumes.

Test: xn = mol fraction of the nth substance listed
Details: 100 kPa

CC[n+]1ccn(C)c1.CS(=O)(=O)[O-] + O
mass density [kg/m3]
Details | 293.15 K | 298.15 K | 303.15 K | 308.15 K | 313.15 K | 318.15 K | 323.15 K | 328.15 K | 333.15 K | 343.15 K
x1 = 0.0181 | 1035.9 | – | 1032.4 | 1030.3 | 1028.2 | 1025.9 | 1023.4 | 1020.8 | 1018.1 | 1012.4
x1 = 0.0375 | 1067.8 | 1065.6 | 1063.3 | 1060.9 | 1058.5 | – | – | 1050.3 | 1047.4 | 1041.3
x1 = 0.056 | – | 1089.7 | – | 1084.5 | 1081.7 | 1078.9 | 1076 | 1073 | – | 1063.6
x1 = 0.0749 | 1112.5 | 1109.8 | 1107 | 1104.1 | 1101.2 | 1098.2 | 1095.1 | 1092 | 1088.8 | 1082.3
x1 = 0.0945 | 1130.6 | 1127.7 | 1124.7 | – | 1118.6 | – | 1112.3 | 1109.1 | 1105.8 | 1099.1
x1 = 0.113 | 1143.9 | 1140.9 | 1137.8 | 1134.7 | 1131.5 | 1128.3 | – | 1121.8 | 1118.4 | 1111.6
x1 = 0.1833 | 1180.5 | – | 1173.9 | 1170.6 | 1167.3 | – | – | 1157.2 | – | 1146.9
x1 = 0.2741 | 1205 | 1201.7 | 1198.3 | 1195 | 1191.7 | 1188.3 | 1184.9 | 1181.6 | 1178.2 | 1171.4
x1 = 0.3671 | 1218.9 | 1215.6 | 1212.2 | 1208.9 | 1205.6 | 1202.2 | – | – | – | 1185.5
x1 = 0.489 | – | 1226.7 | 1223.3 | 1220 | 1216.7 | 1213.3 | 1210 | 1206.7 | – | 1196.8
x1 = 0.6064 | 1236.6 | 1233.3 | – | – | 1223.2 | 1219.9 | – | 1213.3 | 1209.9 | –
x1 = 0.6951 | 1240 | 1236.6 | 1233.2 | 1229.9 | 1226.6 | – | 1219.9 | 1216.6 | 1213.3 | 1206.7
x1 = 0.7708 | 1242.5 | – | 1235.8 | 1232.4 | 1229.1 | 1225.7 | 1222.4 | 1219.1 | 1215.8 | –
x1 = 0.9157 | 1244.5 | 1241.2 | 1237.8 | 1234.4 | – | 1227.8 | 1224.4 | 1221.1 | 1217.8 | 1211.2
x2 = 0.0082 | 1244.5 | 1241.2 | 1237.8 | 1234.4 | 1231.1 | 1227.8 | 1224.4 | – | 1217.8 | 1211.3

O + CC[n+]1ccn(C)c1.CS(=O)(=O)[O-]
Details | mass density [kg/m3]
343.15 K, x2 = 0 | 977.8
